Experimental findings from the RNAGym collection of RNA variant scans (doi:10.7554/elife.90254) are described below.

Sequences and labels used below:
B1: OR4K15 (parent)
chain: GUUAACGGUCAUAGGCCAUGGAAACUAGGAGCACCAUUUCGCUGCCAGUGAAGAAAUGAACAAAGAAAAUCUGGGCCAGGCAGGCAUCAAAAGAAAUAGUCUUGCGCUCAACCAGAAAGUCUGUAAUCAUUUUAAGGGUA

The source gives no read counts; variants with many changes may rest on few reads.

In the series the parent is B1. Briefly: self-cleavage, relative activity (ratio to wild type); higher = more cleavage; in vitro, sequencing; the parent is a self-cleaving ribozyme.
On to A18G A63G A82U U131C, for which the self-cleavage came to 0.12.

Take A18G A30G U132A: the self-cleavage came out at 1.14.

For C17A A86G U122C A125U, the self-cleavage amounted to 0.91.

As to A18C G75A A89G A90G, the self-cleavage turned out to be 0.16.

As to A18G A91G U108G, the self-cleavage came to 0.06.

A18G C32A A126U: the self-cleavage was found to be 1.11.

As to A18G A62U A96G C101A, the self-cleavage was determined as 0.16.

On to A18G A55U A89C U122A, for which the self-cleavage was 0.93.

Take A18G A90U U127C: the self-cleavage came to 2.04.

Take A18G A27G U38C A78U: the self-cleavage was determined as 0.83.

In the case of A18G A94G U132C, the self-cleavage was found to be 2.47.

For A18G A56G A82G A140G, the self-cleavage came to 0.56.

In the case of A18G A30G A69G, the self-cleavage worked out at 1.7.

For the variant A18C U39A U57C A86G, the self-cleavage was determined as 0.57.

In the case of C17U A24G U43C U97A, the self-cleavage was determined as 1.47.

Regarding A18G A63G U102A U108A U124C, the self-cleavage worked out at 0.

Consider A18G A51G C85G, for which the self-cleavage is 0.4.

Turning to C17U A22G U38A A69G, the self-cleavage worked out at 0.76.

For A18G U43C A78G A98G, the self-cleavage came out at 0.17.

A18G A66G A86G A92U A96G A111G A117G: the self-cleavage was 0.01.

As for A18G A54G U108C A117G, the self-cleavage stood at 0.03.

A18G A68G U103C U108A: the self-cleavage was found to be 0.02.

For the variant A18G U49A A64G U100C, the self-cleavage is 2.

For the variant A18G G41A A55G U57C, the self-cleavage was found to be 1.61.

As to A18G A55G A67G A69G A91G, the self-cleavage is 0.74.

C17U A64U A110G: the self-cleavage was found to be 0.06.

As for A18C U39C A64G A95G, the self-cleavage came out at 1.6.

Take A18G A78G A90G: the self-cleavage is 0.27.

With A18G A22G A55G A59G U103C U139A, the self-cleavage came to 0.43.

With A18G C42U A89U, the self-cleavage was found to be 1.1.

Consider A18C U38C U120C, for which the self-cleavage is 0.39.

As to A18G A63G U122C, the self-cleavage is 1.21.

Turning to A18G A27U U49A U57C A96G U131C, the self-cleavage came to 0.36.

With A18G A56G A82G C109U A117G, the self-cleavage was 0.14.

In the case of A18G U38A A118G, the self-cleavage amounted to 1.2.

On to C17U A23G G41U U57C G137U, for which the self-cleavage turned out to be 1.43.

As to A18G A56G A60G U127C, the self-cleavage stood at 0.54.

For A18G C46U A126G, the self-cleavage was 1.13.

As to C17U C40A A51U A55U A63G A69C, the self-cleavage worked out at 0.6.

As for C17A U19A C40U, the self-cleavage stood at 1.59.

In the case of A18G A23G U70C U102C, the self-cleavage was determined as 0.83.

For the variant A18G A60G U87C U131C, the self-cleavage amounted to 0.66.

Regarding A18G A118G U130C, the self-cleavage amounted to 0.5.

Take A18G U39C A59G A78G G80A A94U: the self-cleavage was found to be 0.24.

For the variant A18C G80U A94G U130C, the self-cleavage turned out to be 0.14.

As to A18G A30U A68G, the self-cleavage is 0.92.

For the variant A18G A82G U122C A126G, the self-cleavage was found to be 0.75.

Regarding A18G U39A A66G, the self-cleavage was determined as 0.91.

For A18G A33G U87A, the self-cleavage was 1.45.

Regarding A18G G41A A56G A95G U102A, the self-cleavage turned out to be 1.88.

With C17U U19G A78G, the self-cleavage worked out at 0.45.

In the case of A18G A62U U130C, the self-cleavage was 0.69.

For the variant A18G A22G U57C A91G, the self-cleavage came to 0.32.

In the case of A18G A68U U122C, the self-cleavage amounted to 1.79.

As for A18G C32A U122C C128U, the self-cleavage came out at 0.

Regarding A18G U19C A59U, the self-cleavage came out at 0.77.

With A18G A33G A55G G79U U124A A129G, the self-cleavage is 0.03.

Turning to A18G U49A G80A U124A, the self-cleavage was 0.14.

Regarding A18G A68G U102C A118C A129U, the self-cleavage is 1.

As for C17U A56G G123U, the self-cleavage came to 1.7.

On to A18G U39C G58A, for which the self-cleavage turned out to be 1.91.

As to A18G A110G A140G, the self-cleavage was found to be 0.18.

Consider A18C A24C A125G, for which the self-cleavage was determined as 0.38.

Regarding A18G A24G A64C A90G, the self-cleavage is 1.48.

As to C17U A22G A59G A92G A126G, the self-cleavage came to 1.24.

Regarding A18G A33G A47G, the self-cleavage is 0.13.

Regarding A18G A33G C81U, the self-cleavage is 0.03.

Take A18G A52G A64G: the self-cleavage amounted to 1.44.

With A18G A27U U38C A78C U87A U124C, the self-cleavage was 0.12.

Consider A18G A33U C88U U102C A140U, for which the self-cleavage amounted to 1.68.

In the case of A18G A96G A111G, the self-cleavage stood at 0.01.

With A18G A64G A86G A89G, the self-cleavage was 0.94.

For the variant A18G U39C G73U U127A, the self-cleavage was found to be 0.39.

As to C17U A66G C85U U108C A117U, the self-cleavage was determined as 0.01.

For the variant A18G U43A A51G A56G A64U A69U, the self-cleavage was found to be 1.02.

Regarding A18G G65A A68G, the self-cleavage worked out at 0.67.

For the variant A18G A23U A62U U139G, the self-cleavage worked out at 1.51.

With A18G U49A A118G, the self-cleavage was determined as 1.

With A18G G65U G73A C77U, the self-cleavage amounted to 0.26.

For A18G A24G U39C A47G A66G A96U, the self-cleavage is 1.

For A18G U49C A56G A89G A98G U108C A110G G137U, the self-cleavage was found to be 0.01.

A18G A62C A66G U122G: the self-cleavage is 2.48.

Regarding A18C U57C A69G A94G, the self-cleavage came out at 0.75.

Consider A18G A23G A54G A78U U108A, for which the self-cleavage was 0.03.
